58 compounds from article PMC4336329 (PLoS ONE, 2015) can be followed below.

Structures are written as SMILES. The campaign covered roughly 310,000 compounds. About 2,200 (0.71%) showed an effect of 50% or more. Effects have a minus sign here. The list shows a part of the results.

For this assay, the target named is human ether-à-go-go-related gene (hERG) potassium channel (human, UniProt Q12809). In words: primary screen, population patch clamp on CHO cells stably expressing hERG.
human ether-à-go-go-related gene (hERG) potassium channel, sequence (Q12809 whole entry, looked up): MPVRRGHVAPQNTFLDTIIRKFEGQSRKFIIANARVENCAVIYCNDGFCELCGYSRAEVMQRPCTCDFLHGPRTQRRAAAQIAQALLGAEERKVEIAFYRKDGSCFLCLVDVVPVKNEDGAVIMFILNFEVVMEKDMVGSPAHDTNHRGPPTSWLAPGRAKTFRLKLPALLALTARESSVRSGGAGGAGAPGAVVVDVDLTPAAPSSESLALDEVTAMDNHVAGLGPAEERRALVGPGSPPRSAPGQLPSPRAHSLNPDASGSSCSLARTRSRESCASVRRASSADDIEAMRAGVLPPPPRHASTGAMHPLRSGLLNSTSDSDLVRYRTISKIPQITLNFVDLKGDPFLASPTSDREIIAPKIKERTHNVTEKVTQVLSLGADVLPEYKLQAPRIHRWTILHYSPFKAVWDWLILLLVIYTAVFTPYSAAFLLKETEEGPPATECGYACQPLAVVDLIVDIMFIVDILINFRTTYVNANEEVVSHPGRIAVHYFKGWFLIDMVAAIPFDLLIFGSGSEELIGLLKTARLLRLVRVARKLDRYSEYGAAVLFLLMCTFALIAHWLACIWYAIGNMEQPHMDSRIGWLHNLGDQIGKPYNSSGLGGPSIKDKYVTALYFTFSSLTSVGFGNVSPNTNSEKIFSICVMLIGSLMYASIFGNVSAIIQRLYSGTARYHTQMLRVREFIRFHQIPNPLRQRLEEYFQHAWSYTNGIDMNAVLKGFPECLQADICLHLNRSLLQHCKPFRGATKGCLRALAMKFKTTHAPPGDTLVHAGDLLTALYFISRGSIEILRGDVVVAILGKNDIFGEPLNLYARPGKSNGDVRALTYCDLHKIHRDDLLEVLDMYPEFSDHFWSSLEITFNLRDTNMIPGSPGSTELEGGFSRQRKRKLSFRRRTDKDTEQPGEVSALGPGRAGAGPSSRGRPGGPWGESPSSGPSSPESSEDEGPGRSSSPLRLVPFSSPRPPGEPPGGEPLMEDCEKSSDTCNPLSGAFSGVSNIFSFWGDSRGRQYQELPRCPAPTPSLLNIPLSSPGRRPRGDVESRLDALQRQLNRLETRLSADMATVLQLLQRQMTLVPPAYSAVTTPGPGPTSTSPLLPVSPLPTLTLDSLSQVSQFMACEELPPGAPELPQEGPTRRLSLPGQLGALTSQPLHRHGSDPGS
Consider `CNC(=S)Nc1ccc(Br)cc1`, for which the “hERG current change (%, negative = inhibition) at 1uM” value is listed as 3.15%. On to `CCCNS(=O)(=O)c1ccc(OC)c(Cl)c1Cl`, for which the “hERG current change (%, negative = inhibition) at 1uM” value amounted to 0.827%. For `O=C(CCNc1cccc(F)c1)c1cc2ccccc2o1`, the “hERG current change (%, negative = inhibition) at 1uM” value stood at 7.33%.

With `COc1cccc(OC)c1C(=O)Nc1ccc(N2CCN(C(=O)c3ccco3)CC2)cc1`, the “hERG current change (%, negative = inhibition) at 1uM” value came to 12.3%. Next, `Oc1ccc(NC(=S)Nc2ccc(O)cc2)cc1`: 10.9%; `Cc1cccc(CSc2nc3c(c(=O)n2C)SCC3)c1`: 1.94%. As to `Cc1ccc2c(Cl)c(C(=O)NCCCn3ccnc3)sc2c1`, the “hERG current change (%, negative = inhibition) at 1uM” value is given as -1.11%. As for `Cc1ccccc1CN1CCN(CC(=O)NCCCN2CCN(c3ccc(F)cc3)CC2)C1=O`, the “hERG current change (%, negative = inhibition) at 1uM” value is on record as -52%. Then `COc1ccc(OCCN(C)Cc2ccccc2)cc1`, with -10.7%; and `COC(=O)c1ccc(C2/C(=C(/O)c3ccc4c(c3)CC(C)O4)C(=O)C(=O)N2Cc2ccncc2)cc1` (stereo not shown), with 12.7%. `COc1ccc(OC)c(/C=C2\Oc3cc(OCC(=O)N4CCC(C(=O)O)CC4)ccc3C2=O)c1`: the “hERG current change (%, negative = inhibition) at 1uM” value was -5.15%. Next, `Cc1ccc(OCc2n[nH]c(=S)n2-c2ccccc2)cc1C`: 13.5%. On to `O=C1C2CCCN2C(=O)N1CCCCN1CCN(c2cccc(Cl)c2)CC1` (stereo not shown), for which the “hERG current change (%, negative = inhibition) at 1uM” value is on record as -49.5%. Next, `O=C(Nc1ccccc1C(=O)N1CCOCC1)c1ccc(Br)cc1`: -5.8%; `O=C(CC1C(=O)NCCN1Cc1c(F)cccc1Cl)NCCCN1CCCC1=O` (stereo not shown): 14%; `O=C(Nc1ncn[nH]1)c1ccc(Cl)cc1Cl`: -10.1%. Regarding `O=C(N/N=C/c1ccc([N+](=O)[O-])o1)C(=O)Nc1ccc(C(=O)O)cc1`, the “hERG current change (%, negative = inhibition) at 1uM” value came to 8.53%. Then `CONc1nc2nonc2nc1NOC`, with 8.72%. Next, `CC1(C)N=C(c2ccccn2)C(C)(C)N1O`: 20.4%; `Cc1ccc(C2=NN(C(=O)c3ccco3)C(O)(C(F)(F)F)C2)cc1` (stereo not shown): 8.98%. `Cc1nnc(SCC(=O)Nc2ccccc2F)n1Cc1ccco1`: the “hERG current change (%, negative = inhibition) at 1uM” value came to 9.78%. As for `Cc1ccc[n+](CC(=O)Nc2ccc([N+](=O)[O-])cc2Cl)c1.[Cl-]`, the “hERG current change (%, negative = inhibition) at 1uM” value worked out at 5.67%. Consider `COc1ccccc1C(=O)Nc1ccc(S(=O)(=O)N2CCOCC2)cc1`, for which the “hERG current change (%, negative = inhibition) at 1uM” value is 1.5%. For the compound `CC(=O)Nc1ccc(S(=O)(=O)Oc2ccc(C=O)cc2)cc1`, the “hERG current change (%, negative = inhibition) at 1uM” value is 17%.

Turning to `CC(C)P(=O)(c1cccc(C(=O)O)c1)C(C)C`, the “hERG current change (%, negative = inhibition) at 1uM” value came to 12.4%.

For `CC(C)CCN1C(=O)c2ccc(C(=O)OCn3nnc4ccccc4c3=O)cc2C1=O`, the “hERG current change (%, negative = inhibition) at 1uM” value is recorded as 6.99%. Then `O=C(Nc1cccc(F)c1)C1CCCN1C(=O)OCc1ccccc1` (stereo not shown), with 7.77%; and `CCn1cnc2cc(NCc3nc4ccccc4n3Cc3ccccc3)ccc21`, with -15.2%; and `Cl.O=C(O)C1CCCN(CCC=C(c2ccccc2)c2ccccc2)C1` (stereo not shown), with -20.5%.

Consider `Cc1nn(-c2ccccc2)c2c1C(c1ccc(O)c(O)c1)N1C(=N2)C(Nc2ccccc2)=Nc2ccccc21` (stereo not shown), for which the “hERG current change (%, negative = inhibition) at 1uM” value came to 14.8%.

With `C=CCNc1nnc(SC2CC(=O)N(c3ccc(OC)cc3)C2=O)s1` (stereo not shown), the “hERG current change (%, negative = inhibition) at 1uM” value is on record as 4.89%. Then `Cc1cc(/C=C2\C(=N)N3N=C(c4ccco4)SC3=NC2=O)c(C)n1Cc1ccccc1`, with 12.5%. Turning to `Fc1ccccc1CSc1ccc(-c2ccco2)nn1`, the “hERG current change (%, negative = inhibition) at 1uM” value came to 7.24%. With `CCc1ccc(NC(=O)CSc2nc3n[nH]c(C)c3c(=N)n2-c2cccc(OC)c2)cc1`, the “hERG current change (%, negative = inhibition) at 1uM” value is 4.34%. With `Cc1cccc(/C=N/Nc2nncc3ccccc23)c1`, the “hERG current change (%, negative = inhibition) at 1uM” value came to 0.283%.

With `Cc1nc(SCC(=O)N2CC(=O)Nc3ccccc32)nc(C)c1C`, the “hERG current change (%, negative = inhibition) at 1uM” value was determined as 14.2%. Next, `CC1CC2(CCCC2)N(C(=O)c2ccccc2)Cc2ccccc21` (stereo not shown): 5.27%; `CC(C)Cc1csc(NC(=O)C(C)C)c1C(=O)O`: 8.19%.

For the compound `CCCCn1c(-c2ccc(OC)cc2)nc2c(=O)n(C)c(=O)[nH]c21`, the “hERG current change (%, negative = inhibition) at 1uM” value stood at 12.7%. Next, `COc1ccc(C(NC(=O)/C=C\c2ccco2)c2ccc(OC)c(OC)c2)cc1` (stereo not shown): -1.92%; `N#CCc1ccc(NC(=O)c2ccc(CN3CCc4ccccc4C3)cc2)cc1`: 12.3%; `COc1ccccc1CNS(=O)(=O)c1ccc(-c2cnc(C3CC3)o2)cc1`: 6.55%.

As to `Cc1cccc(OC(=O)c2cn(C)nc2C(F)(F)F)c1C`, the “hERG current change (%, negative = inhibition) at 1uM” value is 6.19%. Consider `Cc1cccc(C)c1N(CC(=O)NN=C1CCCCCC1)S(C)(=O)=O`, for which the “hERG current change (%, negative = inhibition) at 1uM” value is reported as 5.32%. Then `C/C(CC(=O)Nc1ccc(N(C)C)cc1)=N\NC(=O)c1ccc(C(C)(C)C)cc1`, with 15.5%; and `COc1ccc(S(=O)(=O)N2CCOCC2)cc1Br`, with 10.7%. For the compound `Cc1ccc(C2CC(=O)N(c3ccc(F)cc3)C3=C2C(=O)CCC3)cc1` (stereo not shown), the “hERG current change (%, negative = inhibition) at 1uM” value is reported as 12.2%. Next, `Br.CCCc1nnc2n1N=C(c1ccc(C)cc1)CS2`: 3.77%. Next, `CC(=O)N1CCC2(CC1)CC(=O)c1cc(OCC(=O)N3CCCC3)ccc1O2`: 13.7%. Then `COc1ccc2nc(NC(=O)CSc3nnc(C)s3)sc2c1`, with 15.3%; and `Cc1noc(/C=C/N(C)C)c1S(=O)(=O)N1CCc2ccccc21`, with -2.65%; and `COc1ccc(CCN(C)C(=O)CN2C(=O)NC3(CCCCCC3)C2=O)cc1OC`, with 10.8%. Turning to `O=C(c1ncn[nH]1)N1CCN(c2nc(-c3ccccc3)cs2)CC1`, the “hERG current change (%, negative = inhibition) at 1uM” value came to 2.46%.

As for `Cc1ccc(NC(=O)c2cc(-n3cnnc3)ccc2Cl)c(C)c1`, the “hERG current change (%, negative = inhibition) at 1uM” value was -16.2%. As for `CC(C)(C)C(=O)OCc1nc(-c2ccc(C(F)(F)F)cc2)cs1`, the “hERG current change (%, negative = inhibition) at 1uM” value worked out at 20.2%.

In the case of `O=C(NCc1ccccn1)c1cc2ccccn2n1`, the “hERG current change (%, negative = inhibition) at 1uM” value turned out to be 12%. For `Cc1cc2occ(CC(=O)OCC(=O)Nc3sc4c(c3C#N)CCC(C)C4)c2cc1C` (stereo not shown), the “hERG current change (%, negative = inhibition) at 1uM” value is 4.17%. On to `O=C(CCC(=O)OCC(=O)c1ccc(F)cc1)NC1CCCCC1`, for which the “hERG current change (%, negative = inhibition) at 1uM” value was 3.68%.
